# PubChem BioAssay AID485294 (National Center for Advancing Translational Sciences (NCATS), 2010)
# Out of some 370,000 compounds screened, about 150 (0.041%) were called active. Inconclusive means that the source gave no clear call. Such entries were picked first, then a sample of the others. Calls come from the whole dose curve; as a rule, active = well fitted inhibition curve with a large enough effect; inconclusive = small, poorly fitted or top-dose-only effect; inactive = flat fitted curve, though single readings scatter. Potencies of inconclusive entries are left out as doubtful fits.
# Target: Beta-lactamase (Escherichia coli (strain K12)) (UniProt P00811)
# Test: qHTS Inhibitors of AmpC Beta-Lactamase (assay with detergent); note: nearly all actives have a fitted effect of over 25% in size;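 for activity change, negative = inhibition: 0% = no-compound wells and -100% = no-enzyme wells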
# Conditions: AmpC hydrolysis of nitrocefin, absorbance 480 nm, 0.01% Triton; activity change, negative = inhibition: at 114 µM (top of the series)
# Method in brief: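 AmpC (5.3 nM in the dispensed reagent) in 20 mM phosphate pH 7.0 with 0.01% (detergent screen) or 0.0001% Triton X-100 was preincubated with compounds for 15 min at room temperature. Nitrocefin was then added from an 800 uM solution, and hydrolysis was followed at 480 nm.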
# Potency is the fitted concentration of half-maximal effect; tags give direction and shape of the fitted curve.
# UniProt P00811, sequence (P00811 whole entry, looked up): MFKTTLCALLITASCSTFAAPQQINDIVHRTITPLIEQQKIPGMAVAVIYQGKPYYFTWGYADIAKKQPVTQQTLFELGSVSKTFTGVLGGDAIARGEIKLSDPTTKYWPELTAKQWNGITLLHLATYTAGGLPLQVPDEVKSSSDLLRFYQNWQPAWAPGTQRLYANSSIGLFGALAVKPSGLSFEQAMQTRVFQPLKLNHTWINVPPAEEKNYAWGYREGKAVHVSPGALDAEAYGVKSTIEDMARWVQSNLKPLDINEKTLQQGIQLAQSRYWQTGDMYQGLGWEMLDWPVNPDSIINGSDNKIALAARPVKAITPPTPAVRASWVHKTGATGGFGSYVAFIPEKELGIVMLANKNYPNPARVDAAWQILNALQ
SMILES,Potency,"activity change, negative = inhibition"
CN(C)S(=O)(=O)c1ccc(C(=O)Nc2ccccc2C(=O)O)cc1,"inconclusive [inhibitor, full curve, poor fit]",
Cc1ccnc(SCC(=O)N2CCc3ccccc3C2)n1,,inactive: -0.115%
COC(=O)Cn1ncc(N(C)Cc2ccccc2)c(Cl)c1=O,"inconclusive [inhibitor, full curve, poor fit]",
Cc1ccc(NC(=O)c2ccccc2F)nc1,"inconclusive [inhibitor, full curve, poor fit]",
CN1CCN(c2ccccc2NC(=O)c2c(F)cccc2F)CC1,"inconclusive [inhibitor, partial curve]",
O=[N+]([O-])c1ccc(S(=O)(=O)N2CCn3cccc3C2c2ccccc2F)cc1 (stereo not given),,inactive: 10.4%
CC(C)c1nnc(NC(=O)C2CCCCC2)s1,"inconclusive [inhibitor, full curve, poor fit]",
Cc1ccc(NC(=S)Nc2ccc3nc(-c4ccccn4)c(-c4ccccn4)nc3c2)cc1C,"inconclusive [inhibitor, full curve]",
COc1ccc(C(=O)NC(C)CCc2ccccc2)c(O)c1 (stereo not given),,inactive: -7.34%
CCSc1cc(N2CCCC2)nc(-c2cccc(C)c2)n1,"inconclusive [inhibitor, single point]",
CCCCOc1cc(C(=O)OCCN(CC)CC)ccc1N,"inconclusive [inhibitor, full curve, poor fit]",
CCOC(CCNC(=O)c1cc(-c2cccs2)nc2ccccc12)OCC,,inactive: 1.11%
CC1(C)CC(N2CCC(=O)N(C3CC(C)(C)NC(C)(C)C3)C2)CC(C)(C)N1,"inconclusive [inhibitor, partial curve, poor fit]",
O=C(Oc1ccc(C(=S)N2CCCCC2)cc1)c1ccccc1F,,inactive: 1.3%
O=C(NCc1ccc(F)cc1)C1CCCN1C(=O)Nc1cccc(F)c1 (stereo not given),,inactive: -7.53%
O=C(NC1CCCCC1)c1ccc(-c2cccc([N+](=O)[O-])c2)o1,"inconclusive [inhibitor, full curve]",
CCOC(=O)c1c(-c2ccccc2)oc2ccc(O)c(CN3CCCC3)c12,"inconclusive [inhibitor, full curve]",
CCc1cccc(C)c1NC(=O)C(c1ccc(O)cc1)N1CCC1=O (stereo not given),"inconclusive [inhibitor, full curve]",
CCCCN(C)CCn1c(=S)[nH]c2cc(OCC)c(OCC)cc2c1=O,"inconclusive [inhibitor, partial curve, poor fit]",
CCOC(=O)C1=C(N2CCCCC2)c2cc3c(n2C1=O)CCCC3,"inconclusive [inhibitor, partial curve, poor fit]",
COc1nc2ccccc2c(=O)n1-c1ccc(C)cc1,"inconclusive [inhibitor, full curve]",
O=C(c1ccc([N+](=O)[O-])cc1)N(Cc1cccs1)C1CCS(=O)(=O)C1 (stereo not given),"inconclusive [inhibitor, full curve]",
O=C(CNc1ccccc1)N/N=C/c1ccc2c(c1)OCCO2,,inactive: -14%

SMILES,Potency,"activity change, negative = inhibition"
O=C(Nc1ccc(N2CCN(C(=O)c3ccco3)CC2)cc1)c1cc(Br)ccc1Cl,,inactive: -9.64%
CCC(C)NC(=O)Cn1cnc2sc(C)c(S(=O)(=O)N3CCCCC3)c2c1=O (stereo not given),"inconclusive [inhibitor, full curve]",
COc1ccc(-n2c(/C=C/c3ccc(O)cc3)nc3ccccc3c2=O)cc1,"inconclusive [inhibitor, full curve, poor fit]",
CCC(=O)NC(Nc1sc2c(c1C(=O)OC)CCCC2)(C(F)(F)F)C(F)(F)F,"inconclusive [inhibitor, full curve]",
COc1ccc(CNC(=O)c2ccc(CSc3nc4ccncc4n3Cc3ccccc3F)cc2)cc1,,inactive: 20%
Cc1occc1C(=O)NCCCCNC(=O)c1ccoc1C,,inactive: -1.61%
Cc1ccc(C(=O)n2c(-c3ccccc3)cnc2SCC(=O)Nc2ccc(C)cc2C)cc1,,inactive: -13.4%
Cc1sc(NC(=O)c2ccc(Cl)s2)c(C(N)=O)c1C,"inconclusive [inhibitor, partial curve]",
COCCNC(=O)CSc1nc2cc3c(cc2c(=O)n1Cc1ccc(C(=O)NCCc2ccc(OC)c(OC)c2)cc1)OCO3,,inactive: 2.11%
C#CCNC(=O)C1=C[C@H](c2ccccc2)[C@@H](CCCO)[C@H](OCC)O1,,inactive: -3.3%
Cc1c(CN(C)C(=O)c2sc3cc(Cl)ccc3c2Cl)cnn1C,,inactive: 2.29%
O=C(NCCO)c1ccc(CSc2nc3ccccc3[nH]2)cc1,,inactive: -8.02%
Cc1cc(O)c2c(C)c(CC(=O)N3C[C@H]4C[C@@H](C3)c3cccc(=O)n3C4)c(=O)oc2c1,"inconclusive [inhibitor, full curve]",
Cc1cc(=O)oc2ccc(OCC(=O)N3CCc4ccccc43)cc12,"inconclusive [inhibitor, partial curve, poor fit]",
CCOc1cccc2cc(C(=O)NCc3ccc(F)cc3)c(=N)oc12,,inactive: -13.6%
CC(C)CCN(CC(=O)NCc1ccc(F)cc1)S(=O)(=O)c1ccccc1F,"inconclusive [inhibitor, single point]",
CCCCN1CC(O)=C(c2nc3ccccc3s2)C1=N,"inconclusive [inhibitor, full curve]",
CC(=O)NCCC(=O)Nc1nc(-c2c[nH]c3ccccc23)cs1,"inconclusive [inhibitor, full curve, poor fit]",
CCCSc1nc2cc(OC)c(OC)cc2c(=N)n1CCCN1CCOCC1,"inconclusive [inhibitor, full curve, poor fit]",
CCC1CCCCN1Cc1nc2c(c(=O)n(C)c(=O)n2C)n1CC(C)C (stereo not given),"inconclusive [inhibitor, full curve]",
O=C(O)c1[nH]c2ccccc2c1C(c1cccc(O)c1)c1c(C(=O)O)[nH]c2ccccc12,"inconclusive [inhibitor, single point]",
CC(=O)c1c(C)[nH]c(C(=O)NCCc2cccc(C)c2)c1C,,inactive: -2.22%
